Assay results reported in publication PMC4336329 (PLoS ONE, 2015).
In all, about 310,000 compounds went through this assay and about 2,200 (0.71%) showed an effect of 50% or more. Effects have a minus sign here. Some of the results follow.

The molecules below were run against human ether-à-go-go-related gene (hERG) potassium channel (human, UniProt Q12809) (assay: primary screen, population patch clamp on CHO cells stably expressing hERG).
Chain of human ether-à-go-go-related gene (hERG) potassium channel (Q12809 whole entry, looked up): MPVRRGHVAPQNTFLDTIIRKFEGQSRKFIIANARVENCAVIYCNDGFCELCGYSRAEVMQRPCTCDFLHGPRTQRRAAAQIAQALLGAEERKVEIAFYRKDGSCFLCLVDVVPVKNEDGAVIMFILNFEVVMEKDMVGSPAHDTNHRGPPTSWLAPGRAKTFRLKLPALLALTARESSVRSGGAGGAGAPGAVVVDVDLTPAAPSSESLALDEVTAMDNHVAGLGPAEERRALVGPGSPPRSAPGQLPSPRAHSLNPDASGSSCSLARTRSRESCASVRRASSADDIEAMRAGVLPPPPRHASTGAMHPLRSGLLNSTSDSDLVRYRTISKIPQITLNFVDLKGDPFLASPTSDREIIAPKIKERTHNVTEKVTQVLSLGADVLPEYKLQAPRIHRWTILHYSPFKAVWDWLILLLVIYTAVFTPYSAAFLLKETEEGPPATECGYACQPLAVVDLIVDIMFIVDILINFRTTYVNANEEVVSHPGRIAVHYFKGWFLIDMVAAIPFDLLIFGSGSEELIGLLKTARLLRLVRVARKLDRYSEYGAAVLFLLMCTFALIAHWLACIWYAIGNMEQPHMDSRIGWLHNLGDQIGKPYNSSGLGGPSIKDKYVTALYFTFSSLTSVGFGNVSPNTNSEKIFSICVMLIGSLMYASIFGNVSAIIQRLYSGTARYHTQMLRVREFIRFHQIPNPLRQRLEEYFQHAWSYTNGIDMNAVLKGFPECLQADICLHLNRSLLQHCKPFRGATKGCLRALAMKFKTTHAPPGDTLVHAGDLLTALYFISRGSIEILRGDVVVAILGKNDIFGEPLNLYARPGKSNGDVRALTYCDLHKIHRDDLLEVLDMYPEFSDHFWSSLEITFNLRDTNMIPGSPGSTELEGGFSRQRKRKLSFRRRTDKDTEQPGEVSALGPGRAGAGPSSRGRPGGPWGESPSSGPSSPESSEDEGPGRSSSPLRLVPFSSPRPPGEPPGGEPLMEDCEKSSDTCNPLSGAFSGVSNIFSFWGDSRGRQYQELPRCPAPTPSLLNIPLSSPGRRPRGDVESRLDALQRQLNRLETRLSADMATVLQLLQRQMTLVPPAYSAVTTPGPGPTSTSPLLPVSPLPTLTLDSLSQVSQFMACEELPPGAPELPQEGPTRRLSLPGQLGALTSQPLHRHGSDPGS

| Compound | hERG current change (%, negative = inhibition) at 1uM |
| --- | --- |
| CC(=O)c1c(C)n(CC2CCCO2)c2ccc(O)cc12 (centres unmarked) | 17.1% |
| COc1ccc(NC(=O)c2c(C)nn(Cc3ccccc3)c2Cl)cc1S(=O)(=O)N1CCOCC1 | 7.75% |
| CCOc1ccccc1NC(=O)C(OC(=O)c1cc(C)oc1C)c1ccccc1 (centres unmarked) | 7.68% |
| O=C(CCS(=O)(=O)c1cccc2nonc12)N1CCCc2ccccc21 | 8.35% |
| Cc1cc(OCC(=O)N[C@H](C(=O)O)c2ccccc2)c2c3c(c(=O)oc2c1)CCC3 | 14.8% |
| Cc1cccc(CNS(=O)(=O)c2ccc(-c3cnc(C4CC4)o3)cc2)c1 | 18.2% |
| CC(NC(=S)Nc1cccc(C(F)(F)F)c1)C(C)(C)C (centres unmarked) | 13.1% |
| CC1(C)Cc2c(sc3nc(-c4cc5ccccc5o4)n(N)c(=O)c23)CO1 | 9.71% |
| CCN1C(=O)C(CC(=O)Nc2ccccc2Cl)N(NC(=O)c2cccc(F)c2)C1=S (centres unmarked) | 14.2% |
| Cc1ccc(C)c(NC(=O)CN(C)C(=O)c2cc([N+](=O)[O-])ccc2N2CCOCC2)c1 | -4.01% |
| CC(C)OCC(O)CN1CCN(CC(O)COc2ccc3c(c2)OCO3)CC1 (centres unmarked) | -19.4% |
| COc1ccc(NC(=O)c2ccccc2NS(C)(=O)=O)cc1OC | 15.9% |
| Cc1ccc(OCC(O)CN2CCN(CCO)CC2)c(C)c1.Cl (centres unmarked) | 10.6% |
| Oc1ccccc1/C=N/Nc1nccnc1Cl | 3.15% |
| COc1cc(/C=N/NC(=O)CN2CCOCC2)ccc1OCc1ccccc1 | 6.1% |
| CC(=O)N1C(C)(C)CC(=NOC(=O)c2ccccc2)CC1(C)C | 10.9% |
| O=S(=O)(NCc1ccc2c(c1)OCO2)c1cccc2nsnc12 | -5.56% |
| COCCCNC(=O)COc1ccc(S(=O)(=O)NCc2ccccc2)cc1Cl | 4.32% |
| Cc1onc(-c2ccccc2)c1NC(=O)Nc1ccc(OC(F)F)cc1 | 7.53% |
| O=C(NNC(=O)C1CCCC1)c1ccccc1F | 15.4% |
| Cn1c(O)c(C2=c3ccccc3=NC2=O)[nH]c1=S | 11.8% |
| CSc1nc(NCCCO)c2c3c(sc2n1)CN(C)CC3 | -10.6% |
| CCN(CC)c1ccc(S(=O)(=O)N2CCOCC2)cc1NC(=O)CN1CCc2ccccc2C1 | 3.72% |

| Compound | hERG current change (%, negative = inhibition) at 1uM |
| --- | --- |
| CN(C)CCCNC(=O)CCc1nc2ccccc2c(=O)[nH]1 | -4.91% |
| Cc1cc(NS(=O)(=O)c2ccc(NC(=O)CSc3nnc(-c4ccco4)n3Cc3ccco3)cc2)nc(C)n1 | 14.1% |
| Cc1n[nH]c(C)c1CCC(=O)N/N=C/c1c(C)[nH]c2ccccc12 | 14.2% |
| Cc1nc2ccc(NC(=O)c3ccc(Cl)s3)cc2s1 | 8.8% |
| Cc1cc(/C=C2\C(=O)NC(=O)N(c3ccc(F)cc3)C2=O)c(C)n1-c1cccc(C(=O)O)c1 | 11.1% |
| Cc1nc(NC(=O)COC(=O)C(NC(=O)c2ccco2)C(C)C)c(Cl)cc1Cl (centres unmarked) | 3.83% |
| CCN(C(=O)CSc1ccc2c(c1)OCCO2)C1CCS(=O)(=O)C1 (centres unmarked) | 9.99% |
| O=c1[nH]nc(SCc2ccccc2Cl)n1-c1ccc2c(c1)OCCO2 | 9.61% |
| CCOc1ccccc1NC(=O)C(=O)CC(=O)c1cccc(OC)c1 | 13.4% |
| CS(=O)(=O)c1ccccc1C(=O)NC1CCCc2ccccc21 (centres unmarked) | 19% |
| O=C(NCc1ccco1)c1ccc(F)c(S(=O)(=O)N2CCCCC2)c1 | 6.03% |
| CCOC(=O)c1nn(-c2ccccc2)c(=O)cc1OCC(=O)Nc1cc(C)ccc1OC | 2.21% |
| COC(=O)CSc1nc(-c2ccccc2)c2c(c1C#N)CCCC2 | 5.6% |
| COC(=O)C1=C(c2ccc(S(C)(=O)=O)cc2)C[C@@H]2CC[C@H]1N2C(=O)NCc1ccc(C(F)(F)F)cc1 | -10.8% |
| COc1ccc(O)c(-c2cn[nH]c2-c2cccs2)c1 | 13.8% |
| CN(C(=O)COC(=O)CSc1ccc([N+](=O)[O-])cc1)c1ccccc1 | -0.194% |
| COc1ccc(N2CCN(Cc3nc4c(c(=O)n(C)c(=O)n4C)n3CCc3ccccc3)CC2)cc1 | 15.4% |
| CCOC(=O)c1cnc2ccc(OC)cc2c1NCc1ccccc1 | -33.4% |
| Cn1nc(OC(=O)Nc2ccc(Cl)cc2)cc1C(F)(F)F | 4.33% |
| Cc1cccc(N2CCN(CCc3ccccc3)CC2)c1C | -43.7% |
| CC(CCc1ccccc1)NCc1ccncc1 (centres unmarked) | -0.312% |
| COc1cccc(C2=NOC(C(=O)NCc3ccco3)C2)c1 (centres unmarked) | 3.64% |
| CCN(CC)S(=O)(=O)c1ccc(=O)[nH]c1 | 15% |

| Compound | hERG current change (%, negative = inhibition) at 1uM |
| --- | --- |
| N#Cc1c(-c2ccc(F)cc2)nc(-c2ccccc2)[nH]c1=O | 15.1% |
| Cc1ccccc1OCC(=O)N(Cc1ccco1)c1c(N)n(Cc2ccccc2)c(=O)[nH]c1=O | 6.59% |
| CCC(C(=O)Nc1nccs1)(C(F)(F)F)C(F)(F)F | 4.35% |
| Cc1cc(NC(=O)CSc2nnnn2-c2ccccc2C)no1 | 10.7% |
| CCC1CN(C(=O)N2CCC(C(=O)NCc3ccccc3OC)CC2)c2ccccc2O1 (centres unmarked) | 15.9% |
| O=C(O)CN1C(=O)CSc2ccccc21 | -4.46% |
| CC(=O)OC[C@H]1O[C@@H](O/N=C/C[C@@H]2C=C[C@H](OC(C)=O)[C@@H](COC(C)=O)O2)[C@H](OC(C)=O)[C@@H](OC(C)=O)[C@@H]1OC(C)=O | 4.34% |
| CC(=O)c1ccc(OCc2cc(C(=O)N(C)Cc3cc(C)no3)no2)cc1 | 11.8% |
| CC(C)Nc1ncnc2c1cnn2-c1ccc(Cl)cc1 | 16.6% |
| CC1CCCC(C)N1C(=S)SCC(=O)O (centres unmarked) | 1.1% |
| Cc1ccc(S(=O)(=O)NCC(c2cccnc2)N2CCOCC2)cc1 (centres unmarked) | 13% |
| COc1ccc(S(=O)(=O)Cc2ccc(C(=O)NCCCN3CCc4ccccc4C3)o2)cc1 | -23% |
| CCOc1ccc(-c2nnc(-c3snc(-c4ccc(F)cc4)c3N=CN(C)C)o2)cc1 | 15.1% |
| O=C1CC(=O)Nc2cc(S(=O)(=O)N3CCN(c4ccc([N+](=O)[O-])cc4)CC3)ccc2N1 | -13.6% |
| O=C(Cn1c(O)c(/C=C2\C=Nc3ccccc32)sc1=O)N1CCOCC1 | 12.6% |
| O=C(c1cccc(S(=O)(=O)N2CCOCC2)c1)N1CCCCCC1 | 0.148% |
| CCOc1ccc(CNC(=O)CS(=O)(=O)Cc2nc(-c3ccc(OC)cc3)oc2C)cc1 | 16.6% |
| CC(NS(=O)(=O)c1ccccc1)C(=O)NCc1ccco1 (centres unmarked) | 8.63% |
| COc1ccc(Cl)cc1C(=O)Nc1ccc2c(c1)OCCO2 | 12.6% |
| O=C(CNC(=O)c1ccco1)Nc1cccc(Cl)c1 | 8.11% |
| COC(=O)c1ccc(C(=O)Nc2ccc3nc(-c4cccnc4)[nH]c3c2)cc1 | 17% |
| CCn1c(/C=C/c2cccc([N+](=O)[O-])c2)nc2ccccc2c1=O | 15.8% |
| Cc1ccc(Cl)c2sc(NC(=O)C3CC3)nc12 | 12.4% |

| Compound | hERG current change (%, negative = inhibition) at 1uM |
| --- | --- |
| CC(=O)NCCc1nc2cc(NC(=O)c3ccc(F)cc3)ccc2n1C | 9.46% |
| COc1ccc(-n2nc(C(=O)NCC3CCCO3)c3ccccc3c2=O)cc1 (centres unmarked) | 35.4% |
| N#Cc1nc(-c2ccco2)oc1N1CCOCC1 | 10.1% |
| CC1CCCCC1NC(=O)COC(=O)c1ccc2ccccc2n1 (centres unmarked) | 3.71% |
| COc1ccc(CNC(=O)c2nccnc2CO)cc1 | 14.9% |
| COc1ccc(CNC(=O)N2CCc3ccccc3C2)cc1 | 22.5% |
| CC1(C)Cc2[nH]c(=S)c(C#N)cc2CO1 | 15.8% |
| Cc1ccc(C)c(C(=O)CSc2nc(N)cc(=O)[nH]2)c1 | 6% |
| CCn1c(CNC(=O)c2cccc(C)c2)nnc1SCC(=O)NC1=NCCS1 | 15.3% |
| Cc1c(NC(=O)c2cc(-c3cccc(Cl)c3)on2)c(=O)n(-c2ccccc2)n1C | 0.359% |
| O=C(COC(=O)c1cc([N+](=O)[O-])ccc1NCCO)c1ccc(Cl)cc1 | 12.1% |
| Cc1n[nH]c(=O)nc1Nc1ccc(O)cc1 | -15.3% |
| CCOC(=O)CSc1nnc(CCCCCN2C(=O)c3cccc4cccc(c34)C2=O)o1 | -2.51% |
| Cc1ccc(C(=O)NCCCN2CCOCC2)c(C)c1 | 18.8% |
| COc1ccc(OC)c2sc(N3CCc4ccccc4C3)nc12 | 6.61% |
| O=C(NCc1c[nH]c2ccccc12)c1ccccc1 | 11% |
| CC(C)OP(=O)(OC(C)C)C(Nc1ccccc1)c1ccccc1C(F)(F)F (centres unmarked) | 4.33% |
| CC(CC(C)C(=O)N1CCOCCN(C(=O)C(C)CC(C)C(=O)O)CCOCC1)C(=O)O (centres unmarked) | 7.17% |
| CCN(C(=O)CN1C(=O)/C(=C/c2ccc(F)cc2)SC1=S)C1CCS(=O)(=O)C1 (centres unmarked) | 8.43% |
| Cc1cc(F)ccc1N1CCC(N2CCN(C)C(CCO)C2)CC1 (centres unmarked) | 16.7% |
